Laboratory results: US20250163119A1, “COMPOUNDS FOR THE TREATMENT OF DIABETES OR OBESITY” (Eli Lilly and Company, priority 2023, published 2025)
Values joined by “and” are separate entries in the source; they are usually repeats but may differ in a detail not shown here. Equal entries are not always repeated. For at least one compound, name, drawing or mass did not settle the structure. Some entries repeat one wording, which the source may state once for all of them. *1 amine or outer side, *2 acyl side, *3 side chain or, on linkers, in order; H or OH if unused. Side-chain parts run from the residue outwards. [ ]: non-standard residue; d: D form. The star is where a group is joined. C20 diacid = O=C(O)CCCCCCCCCCCCCCCCCCC(=O)*; γGlu = O=C(O)[C@H](CCC(=O)[*:2])N[*:1]; εLys = N[C@@H](CCCCN[*:1])C(=O)[*:2]; αMeL = CC(C)C[C@](C)(N)C(=O)O; AEEA = NCCOCCOCC(=O)O; Aib = CC(C)(N)C(=O)O

How the values were obtained:
[1] = In vivo Diet Induced Obesity (DIO) model, chronic dose administration; set-up: species or system C57BL6 mice; conditions: DIO mice; for Fat mass change / lean mass change: EchoMRI day 1 vs day 14; for Fat mass change / lean mass change / body weight change / fasting blood glucose / fasting blood glucose (% reduction from vehicle): mean; for body weight change: day 1 to day 14; for fasting blood glucose: day 15 after overnight fast; for fasting blood glucose (% reduction from vehicle): day 15, vs vehicle in same study; for efficacy versus SEQ ID NO:54 for body weight change and fat mass change: single dose level of 30 nmol/kg
From the text: The DIO model represents a pre-diabetic state that is obese. These animals, although not diabetic, display insulin resistance, dyslipidemia, and hepatic steatosis, all characteristics of metabolic syndrome, after being placed on a high fat (60% Kcal from fat) diet for 12 weeks (Surwit R S et al., Diet-induced type II diabetes in C57BL/6J mice. Diabetes 37(9): 1163-7 (1988)). Assessment of body weight change from start of study, fat mass change from start of study, lean mass change from start of study, and fasting glucose or glucose change from vehicle in same study substantially as set forth below. In the case of SEQ ID NO:55 combined with SEQ ID NO:25, tibialis anterior muscle weight at the end of the study is also reported as a measure of effect on muscle weight.
Male C57BL6 mice 22-24 weeks old (on high fat diet since 6 weeks of age, Jackson Laboratories 3800050; Bar Harbor, ME) are housed 1 per cage and maintained on D12492 chow (60% lard high fat diet: Research diets New Brunswick NJ) for 2 weeks in the vivarium and on a normal light cycle prior to experiment start. Animals were randomized by body weight to treatment groups using block randomization. On day 1 of experiment animals and food were weighed and recorded. Animals were separated in to two equal groups and started on separate days (data combined) to simplify the logistics of the study. Animals are given a single subcutaneous injection (s.c.) of the indicated treatment in 40 mM Tris HCl pH8.0+50 mM D-mannitol+0.02% polysorbate 80 on days 1(start), 4, 7, 10, and 13 of experiment at a volume of 10 ml/kg. Vehicle control animals were injected with a similar volume of this solution. The solutions were kept in sterile capped vials stored at 4° C. for the duration of the study. Each treatment arm has an n of 5-6 mice per group.
From study day 1 to study day 14 the animals were weighed daily prior to dose administration. […] The animals were placed in a weigh pan and the balance is allowed to stabilize. The weight was recorded.
On Study Day 14, the animals were fasted overnight (approximately 16-18 hours) by placing them in a clean cage with a clean wire rack without food but allowed access to water, and on day 15 animals were subjected to fasting blood glucose measurement as follows; the tail of the animal was resected and a blood samples was collected and blood glucose was measured using an Accu-Chek Aviva glucose meter (Roche; Indianapolis, IN). Statistical significance ([…] vs. 0 dose; one way ANOVA Dunnett's post hoc) was calculated using GraphPad Prism software (La Jolla, Ca).
On study day 1 and study day 14 body composition was analyzed using Quantitative Nuclear Magnetic Resonance EchoMRI analyzer (EMR-166-s, EchoMRI; Houston Tx). After calibrating the analyzer with a known amount of canola oil, the animals were placed in the analyzer which measures fat and non-fat (lean) mass in grams. Change in mass is calculated by subtraction of […].
On study day 15, following tail bleed for blood glucose, animals were sacrificed by C02 asphyxiation and the right tibialis anterior muscle was dissected. Muscles were trimmed of fascia and tendons and weighted. Weight was recorded and, in the case of relative weight, Tibialis anterior weight in milligrams was divided by body weight in grams.
The data are represented as the arithmetic mean plus or minus the standard error of the mean (SEM). Tables 6-9 show ED 50s for the listed parameters as appropriate. ED 50 was calculated using the log(agonist) vs. response—Find ECanything function in GraphPad Prism software (La Jolla, Ca) with F=50 and the top fixed to vehicle mean.

[2] = Association state determination by Sedimentation Velocity Analytical UltraCentrifugation (SV-AUC); type: physicochemical; conditions: 1 mg/mL, 5 mM phosphate, 20° C.
Description: SV-AUC was performed at 20° C. using a Beckman Optima with AN 60 Ti rotor and final rotor speed of 60,000 rpm. Peptides were dialyzed into 5 mM phosphate pH 7 or 1× phosphate buffered saline (PBS) pH 7.2. Samples were adjusted to the desired concentration (0.1 mg/mL, 1 mg/mL, or 10 mg/mL) using relevant buffer as needed. Both samples and buffer were passed through […] PVDF centrifugal filter units. The filtered samples were loaded into the sample sectors of the cells; filtered buffer alone was loaded in the reference sector of the cells. A Wavelength Scan was performed as the first step to choose a suitable lambda […] value for the given compound with 1-1.2 OD at the concentration(s) tested; this value was generally between 225 nm and 254 nm and used for Method Scan in the next step. In the Method Scan, both absorbance and interference detection modules were used. Temperature equilibration was set as first stage with 0 rpm rotor speed for 3 hours. Sedimentation velocity was set as second stage with rotor speed at 60,000 rpm. 300 scans with frequency of 60 seconds or 500 scan counts with frequency of 120 seconds were performed at the designated wavelength. Data were analyzed with SEDFIT software wherein a continuous c(s) distribution model was applied; the setting of relevant parameters is shown in Table 4 and Table 5; sedimentation coefficient (s) values were reported in Svedherg units (S).
The experiment to characterize a compound comprising SEQ ID NO:54 was performed at 300 scan counts with frequency of 60 seconds; for all other tested polypeptides, the experiments were performed at 500 scan counts with frequency of 120 seconds.

[3] = 0.3 nmol/kg s.c. on days 1, 4, 7, 10, 13
[4] = 1 nmol/kg s.c. on days 1, 4, 7, 10, 13
[5] = 3 nmol/kg s.c. on days 1, 4, 7, 10, 13
[6] = 10 nmol/kg s.c. on days 1, 4, 7, 10, 13
[7] = 30 nmol/kg s.c. on days 1, 4, 7, 10, 13
[8] = 100 nmol/kg s.c. on days 1, 4, 7, 10, 13
[9] = 300 nmol/kg s.c. on days 1, 4, 7, 10, 13
[10] = dose response 0.3-300 nmol/kg s.c., top fixed to vehicle mean

Ac-GSPSIVTS[αMeL]DVPT[Aib][αMeL]LQKILEQERAEKARQQAK([γGlu-AEEA-εLys-C20 diacid])EAAEILAQV-NH2 [SEQ ID NO: 1, Ac-GSPSIVTS αMeL DVPT Aib αMeL LQKILEQERAEKARQQAK(γE-(2-[2-(2-Amino-ethoxy)-ethoxy]-acetyl)-ϵK-CO-(CH2)18-CO2H)EAAEILAQV-NH2]
Fat mass change [1, 3]: -0.23 g | lean mass change [1, 3]: 1.09 g | body weight change [1, 3]: 1.63 g | fasting blood glucose [1, 3]: 115.8 mg/dL | Fat mass change [1, 4]: -1.69 g | lean mass change [1, 4]: 0.86 g | body weight change [1, 4]: -0.05 g | fasting blood glucose [1, 4]: 97.00 mg/dL | Fat mass change [1, 5]: -3.02 g | lean mass change [1, 5]: 1.42 g | body weight change [1, 5]: -1.27 g | fasting blood glucose [1, 5]: 90.33 mg/dL | Fat mass change [1, 6]: -5.56 g | lean mass change [1, 6]: 1.00 g | body weight change [1, 6]: -4.23 g | fasting blood glucose [1, 6]: 86.00 mg/dL | Fat mass change [1, 7]: -7.19 g | lean mass change [1, 7]: 0.47 g | body weight change [1, 7]: -7.05 g | fasting blood glucose [1, 7]: 89.00 mg/dL | Fat mass change [1, 8]: -9.20 g | lean mass change [1, 8]: 0.15 g | body weight change [1, 8]: -9.60 g | fasting blood glucose [1, 8]: 86.40 mg/dL | Fat mass change [1, 9]: -8.97 g | lean mass change [1, 9]: -0.62 g | body weight change [1, 9]: -9.50 g | fasting blood glucose [1, 9]: 84.44 mg/dL | ED 50 (nmol/kg) for body weight change [1, 10]: 11.27 nmol/kg | ED 50 (nmol/kg) for fasting blood glucose [1, 10]: 0.45 nmol/kg | ED 50 (nmol/kg) for fat mass change [1, 10]: 6.45 nmol/kg | ED 50 (nmol/kg) for lean mass change [1, 10]: Ambiguous | efficacy versus SEQ ID NO:54 for body weight change and fat mass change as measured by ED 50 ([1]; dose response experiments): improvement in efficacy over previous polypeptide SEQ ID NO:54 | Sedimentation Coefficient ([2]; pH 7 + 150 mM NaCl): 1.25 S and 1.82 S | Sedimentation Coefficient ([2]; pH 7): 0.9 S and 1.5 S

Ac-GSPSIVTS[αMeL]DVPT[Aib][αMeL]LQKLLEQERAEKARQQAK([γGlu-AEEA-εLys-C20 diacid])EAAEILAQV-NH2 [SEQ ID NO: 2, Ac-GSPSIVTS αMeL DVPT Aib αMeL LQKLLEQERAEKARQQAK(γE-(2-[2-(2-Amino-ethoxy)-ethoxy]-acetyl)-ϵK-CO-(CH2)18-CO2H)EAAEILAQV-NH2]
Fat mass change [1, 7]: -5.76 g | lean mass change [1, 7]: -0.35 g | body weight change [1, 7]: -4.87 g | fasting blood glucose (% reduction from vehicle) [1, 7]: 37.33% | efficacy versus SEQ ID NO:54 for body weight change and fat mass change [1]: superiority in efficacy over previous polypeptide SEQ ID NO:54 | Sedimentation Coefficient ([2]; pH 7): 0.9 S and 1.5 S

Ac-PPPIVTS[αMeL]DVPT[Aib][αMeL]LQKLLEQERAEKARQQAK([γGlu-AEEA-εLys-C20 diacid])EAAEILAQV-NH2 [SEQ ID NO: 48, Ac-PPPIVTS αMeL DVPT Aib αMeL LQKLLEQERAEKARQQAK(γE-(2-[2-(2-Amino-ethoxy)-ethoxy]-acetyl)-ϵK-CO-(CH2)18-CO2H)EAAEILAQV-NH2]
Fat mass change [1, 7]: -5.73 g | lean mass change [1, 7]: -0.19 g | body weight change [1, 7]: -6.16 g | fasting blood glucose (% reduction from vehicle) [1, 7]: 32.53% | efficacy versus SEQ ID NO:54 for body weight change and fat mass change [1]: superiority in efficacy over previous polypeptide SEQ ID NO:54 | Sedimentation Coefficient ([2]; pH 7): 0.9 S and 1.5 S

Ac-PPPIVTS[αMeL]D[dV]PT[Aib][αMeL]LQKLLEQERAEKARQQAK([γGlu-AEEA-εLys-C20 diacid])EAAEILAQV-NH2 [SEQ ID NO: 47, Ac-PPPIVTS αMeL D (D-Val) PT Aib αMeL LQKLLEQERAEKARQQAK(γE-(2-[2-(2-Amino-ethoxy)-ethoxy]-acetyl)-ϵK-CO-(CH2)18-CO2H)EAAEILAQV-NH2]
Fat mass change [1, 7]: -4.80 g | lean mass change [1, 7]: 0.26 g | body weight change [1, 7]: -4.87 g | fasting blood glucose (% reduction from vehicle) [1, 7]: 27.62% | efficacy versus SEQ ID NO:54 for body weight change and fat mass change [1]: superiority in efficacy over previous polypeptide SEQ ID NO:54 | Sedimentation Coefficient ([2]; pH 7): 0.8 S and 1.4 S

Ac-PPPIVTS[αMeL]D[dV]PT[Aib][αMeL]LQK[Aib]LEQERAEKARQQAK([γGlu-AEEA-εLys-C20 diacid])ENTEILAQV-NH2 [SEQ ID NO: 46, Ac-PPPIVTS αMeL D (D-Val) PT Aib αMeL LQK Aib LEQERAEKARQQAK(γE-(2-[2-(2-Amino-ethoxy)-ethoxy]-acetyl)-ϵK-CO-(CH2)18-CO2H)ENTEILAQV-NH2]
Fat mass change [1, 7]: -5.63 g | lean mass change [1, 7]: -0.19 g | body weight change [1, 7]: -5.80 g | fasting blood glucose (% reduction from vehicle) [1, 7]: 35.44% | efficacy versus SEQ ID NO:54 for body weight change and fat mass change [1]: superiority in efficacy over previous polypeptide SEQ ID NO:54 | Sedimentation Coefficient ([2]; pH 7): 0.7 S and 1.4 S | Sedimentation Coefficient species (% of total) ([2]; pH 7): 35.9% and 62%
